# Measured values as given in the supplement of paper PMC12217912.
# The list shows a part of the results. Sequences were assembled here from the parent chain. Values near 0.05 are background.
# B1: TEV protease; numbered along this chain (parent)
# chain: MGESLFKGPRDYNPISSSICHLTNESDGHTTSLYGIGFGPFIITNKHLFRRNNGTLVVQSLHGVFKVKDTTTLQQHLVDGRDMIIIRMPKDFPPFPQKLKFREPQREERICLVTTNFQTKSMSSMVSDTSCTFPSGDGIFWKHWIQTKDGQCGSPLVSTRDGFIVGIHSASNFTNTNNYFTSVPKNFMELLTNQEAQQWVSGWRLNADSVLWGGHKVFMVKPEEPFQPVKEATQL
# Variants of: B1
# Test: raw area under fraction-flipped curve 0-4 h after induction (AUC4h, not background-subtracted), DNA-recorder readout of cleavage of the substrate (dimensionless); higher = more cleavage of the substrate by the protease variant
# Settings: temperature: 34 °C; time window: 0-4 h after rhamnose induction
# Experimental: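 In vivo DNA recorder in E. coli TOP10(DE3) ΔrhaA at 34 °C. Each TEVp single-site mutant (parent TEVp 0) is paired with a single-site variant of the 7-mer TEVs (canonical ENLYFQ|S). The substrate sits between flexible linkers in a Bxb1-sfGFP-TEVs-SsrA fusion, so cleavage stabilises Bxb1 and speeds flipping of a recombination array, read by NGS. The value is the raw area under the fraction-flipped curve over 0-4 h after rhamnose induction (AUC4h), with ≥20 reads per time point. It is not background-subtracted; inactive controls average about 0.047.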
# 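Further: Bxb1 expression induced with 0.2% (w/v) L-rhamnose at OD600 near 0.5, cultures sampled hourly, flipped fraction per protease–substrate barcode pair counted by paired-end Illumina sequencing.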
Variant,area with substrate ENLYFAS,area with substrate ENLYFDS,area with substrate ENLYFES,area with substrate ENLYFFS,area with substrate ENLYFGS,area with substrate ENLYFIS,area with substrate ENLYFLS,area with substrate ENLYFMS,area with substrate ENLYFNS,area with substrate ENLYFPS,area with substrate ENLYFSS,area with substrate ENLYFTS,area with substrate ENLYFVS,area with substrate ENLYFWS,area with substrate ENLYFYS,area with substrate ENLYFCS,area with substrate ENLYFHS,area with substrate ENLYFKS,area with substrate ENLYFRS
H62Y,0.0563,0.0253,0.0624,0.0756,0.0682,0.0501,0.0664,0.0547,0.0561,0.038,0.0706,0.0499,0.06,0.0567,0.0524,,,,
I84S,0.0635,0.0615,0.0695,0.0735,0.0399,0.0537,0.0511,0.0379,0.0604,0.065,0.0521,0.0662,0.0456,0.0545,0.0592,0.0458,0.0375,0.0568,0.0596
I84A,0.0608,,0.0541,0.0709,0.0751,0.0571,,0.0594,0.0727,0.052,,0.066,,,,0.0555,,,
R87H,0.0633,,0.0698,0.0593,,0.0716,,0.0565,,0.0488,0.0724,,,0.0421,,,,,0.0564
F49Y,0.0703,,,0.0451,,0.0598,,0.0469,0.0606,0.0633,,,,,0.0718,,0.0559,0.0517,0.0569
F49Q,0.0942,,0.0622,0.0367,0.0651,0.0576,,0.0719,0.0347,0.0563,0.0571,,,0.0465,0.0575,,0.0671,0.0552,0.0587
K68Y,0.0533,0.0519,,0.0552,0.0594,0.0505,0.0559,0.0662,,0.0673,0.0681,0.0601,,,0.0507,0.0574,,,0.0484
K68A,0.055,0.067,0.0489,0.0554,,0.0608,0.0644,0.0667,,0.0458,,0.0552,,0.0656,0.0477,0.0679,0.0619,,
K68I,0.0693,,0.0682,0.0657,0.0753,0.0617,0.0193,0.0647,0.0561,0.0615,0.0599,0.0561,0.0575,0.0411,,0.0618,0.0736,0.0573,
T70L,0.0703,,0.0615,0.0797,0.0522,,0.0703,0.0551,,,,0.059,0.0522,0.0613,0.0514,,,0.069,
I43H,0.0435,0.0521,0.0498,0.0503,0.0438,0.0526,,,0.0536,0.0463,0.0373,0.0386,,0.0424,0.0481,0.0635,,0.0416,0.0525
H76M,0.065,,,0.0753,,,0.0608,0.0517,,0.0686,,,,0.0737,0.057,0.0572,,,
H76L,0.0806,,0.066,0.0683,,0.052,,0.07,0.0775,0.0601,,0.056,0.0547,,0.0527,0.0686,0.0622,0.0396,0.0503
D82H,0.0508,,0.0724,0.0727,0.0456,0.0563,0.0605,0.0484,,0.0606,,,0.0478,0.0518,,0.0795,,0.0581,
D82L,0.0282,,,0.0539,,0.0636,0.0527,0.0436,0.045,0.06,0.0697,0.0423,,,0.0493,0.0669,0.0513,,0.0576
P89Y,0.0553,0.0497,0.0414,0.0632,0.0697,0.0423,,0.0581,0.0561,0.0273,0.0572,0.0368,,0.0515,0.0515,0.049,0.0458,0.0581,
V57N,0.065,,0.0841,0.0693,0.0628,0.0549,0.0675,0.0634,,0.0597,0.0523,0.0637,,,0.0388,,0.0867,0.0624,
T55C,0.0426,0.0548,0.0724,,,0.0467,0.0605,0.0736,0.0571,0.0559,0.0764,0.0583,0.0727,0.0621,0.0422,0.0455,0.0556,0.0642,
S60C,0.0639,,0.0642,0.0494,0.0896,0.0599,0.0743,0.0582,0.0727,0.0429,0.0595,0.0742,0.0487,0.0594,0.0608,0.0572,0.0705,0.0331,0.0616
G63R,0.0649,0.0281,0.0676,0.0554,,0.0521,,0.0639,,0.0539,,0.0528,0.0605,0.0608,0.0672,0.0531,0.0638,,0.0755
G63L,0.0539,0.065,0.0708,0.067,0.0507,0.0611,0.0707,0.0684,,0.0554,0.0564,0.0479,0.0663,0.0478,0.0534,0.0618,0.0656,0.0488,0.0425
G63T,0.0608,0.0609,0.0567,0.072,,0.057,0.0547,0.0574,,0.0744,,0.0455,,0.0661,,0.0495,0.0512,0.0506,
D79F,0.0469,,0.0577,0.0646,,0.0491,,,0.0739,0.0587,,0.056,,0.0495,0.0351,0.0552,,0.0656,0.0598
D79M,0.0523,0.0585,0.0685,0.0605,,0.0596,0.0717,0.0581,0.0647,0.0472,,,,0.0442,0.0613,,,0.0601,0.0558
D79S,0.0483,0.0645,0.0609,0.0593,0.05,0.048,0.0553,0.0823,,0.0616,,0.0504,,0.0564,0.0572,0.0593,,0.0613,0.0552
P94W,0.0614,0.0342,0.0655,0.0602,0.0708,0.0568,,0.0382,,0.0578,,0.0654,0.057,0.0608,0.0708,0.0598,0.058,0.0674,
